# Over roughly 110,000 compounds, “z-score” has its median near -0.1; the highest 2% begin near 2. This is one part of the list.
# Molecular target: Metabotropic glutamate receptor 8 (Rattus norvegicus) (UniProt P70579)
# Assay: rat mGluR8 modulators via GIRK flux, primary screen, cell-based, thallium flux, HTS (AID 488969)
# Settings: HEK293 rat mGluR8, GIRK (G protein-gated inwardly rectifying potassium channel) thallium flux, FluoZin2; at 10 µM; stronger effect = higher value; submaximal glutamate (EC20) added with thallium
# Chain of UniProt P70579 (P70579 whole entry, looked up): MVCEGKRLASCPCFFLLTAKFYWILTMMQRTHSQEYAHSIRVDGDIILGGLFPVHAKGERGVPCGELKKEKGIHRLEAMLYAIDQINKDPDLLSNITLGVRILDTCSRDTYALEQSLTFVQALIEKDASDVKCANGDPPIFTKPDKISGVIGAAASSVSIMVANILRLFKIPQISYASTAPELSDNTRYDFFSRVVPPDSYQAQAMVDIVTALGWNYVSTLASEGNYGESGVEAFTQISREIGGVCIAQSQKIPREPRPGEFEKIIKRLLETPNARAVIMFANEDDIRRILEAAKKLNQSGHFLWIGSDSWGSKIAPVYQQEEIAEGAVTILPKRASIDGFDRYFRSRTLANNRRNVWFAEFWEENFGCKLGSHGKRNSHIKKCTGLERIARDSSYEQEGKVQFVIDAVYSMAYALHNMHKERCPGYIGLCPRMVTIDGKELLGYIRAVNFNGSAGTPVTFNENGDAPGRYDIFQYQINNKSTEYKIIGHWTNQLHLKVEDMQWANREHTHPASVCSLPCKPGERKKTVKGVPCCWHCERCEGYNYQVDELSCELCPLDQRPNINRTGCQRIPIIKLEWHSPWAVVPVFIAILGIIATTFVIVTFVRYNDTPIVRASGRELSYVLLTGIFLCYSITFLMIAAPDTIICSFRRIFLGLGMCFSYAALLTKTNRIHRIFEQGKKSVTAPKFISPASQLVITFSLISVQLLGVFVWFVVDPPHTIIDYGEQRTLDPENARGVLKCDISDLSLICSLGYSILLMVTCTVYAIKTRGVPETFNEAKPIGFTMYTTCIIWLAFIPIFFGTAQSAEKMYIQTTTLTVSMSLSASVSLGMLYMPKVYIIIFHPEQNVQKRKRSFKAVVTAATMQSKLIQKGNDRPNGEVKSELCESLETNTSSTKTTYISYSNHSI
row,Compound,z-score
1,Cn1c(SCC(=O)NCCc2ccccc2)nnc1-c1ccco1,-0.047
2,CCN(CC)S(=O)(=O)c1ccc(C(=O)NCCc2cc3c(OC)ccc(OC)c3[nH]c2=O)cc1,-0.217
3,COc1ccc(CN2C(=O)Cc3c2nc(N)c2c(N)nc(N4CCCCC4)c(C#N)c32)cc1,-0.113
4,O=C(CCn1nnc2ccccc21)Nc1nnc(Cc2ccccc2)s1,-0.361
5,COc1ccc(CN(CCC(c2ccccc2)C2CCOC(C)(C)C2)C(C)=O)cc1 (stereo unspecified),-0.06
6,COCC(=O)Nc1ccccc1C(=O)Nc1ccc(OC)cc1,0.304
7,CS(=O)(=O)N(Cc1ccco1)Cc1ccccc1Cl,0.604
8,COc1ccc(Br)cc1/C=N/NC(=O)c1ccc(COc2ccc3c(c2)CCC3)o1,-0.107
9,C=CCNC(=O)c1ccc(-c2nc(-c3ccccc3)cs2)cc1,0.133
10,CCCn1c(C(O)c2ccc(OC)cc2)nc2ccccc21 (stereo unspecified),0.131
11,Cn1c(CCNC(=O)c2ccccc2F)nnc1SCc1nc2ccccc2c(=O)[nH]1,0.0964
12,Cc1nn(C(C)C(=O)N2CCCCC2)c(=O)c2c1sc1ccccc12 (stereo unspecified),-0.115
13,O=C(Nc1ccccc1Br)C1CC(=O)N(c2ccc3c4c(cccc24)CC3)C1 (stereo unspecified),-0.441
14,c1cncc(-c2nnc3n2CCC3)c1,0.227
15,CC(CNc1ccccc1O)C(=O)O (stereo unspecified),0.108
16,Cc1occc1C(=O)NNC(=S)Nc1cccc([N+](=O)[O-])c1,-0.138

row,Compound,z-score
1,CCCCn1nc2cc(C(=O)NCc3ccc(C(F)(F)F)cc3C(F)(F)F)ccc2c1OCC,-0.313
2,CC(C(=O)Nc1cccc([N+](=O)[O-])c1)n1nnc2ccccc21 (stereo unspecified),-0.37
3,COCCCNC(NC(=O)c1ccc(C)cc1)C(Cl)(Cl)Cl (stereo unspecified),-0.126
4,O=C(CN(Cc1ccco1)C(=O)CNS(=O)(=O)c1ccc(Cl)cc1)NCc1ccc(F)cc1,0.341
5,COc1cc2ccccc2cc1C(=O)Nc1ccccc1N1CCN(S(C)(=O)=O)CC1,0.316
6,C=CCn1nnc2sc3c(c2c1=O)CCC(C)C3 (stereo unspecified),-0.544
7,O=C(Nc1ccc(SC(F)F)cc1)c1cccc2nc3ccccc3nc12,-0.355
8,O=C1CC(c2ccccc2)n2nc(NC(=O)c3cccnc3)nc2N1 (stereo unspecified),0.141
9,COc1ccccc1C(=O)NCC(=O)Nc1ccccc1,-0.213
10,Nc1cc(-c2ccccc2)ccc1O,0.539
11,O=C(NC(=S)NNC(=O)c1cccs1)c1ccco1,1.08
12,CC(C)CCN(C)C1CCN(S(=O)(=O)c2ccc(F)cc2)CC1,-0.527
13,CCNC(=S)Nc1cc(Cl)ccc1Oc1ccccc1,0.269
14,CC(=O)Nc1ccc(NC(=O)C(C)OC(=O)CCC(=O)c2ccc(F)cc2)cc1 (stereo unspecified),0.0797
15,O=C1c2oc3ccccc3c(=O)c2C(c2cccc(O)c2)N1c1ccccn1 (stereo unspecified),-0.576

# — PubChem BioAssay AID488969 (Vanderbilt High Throughput Screening Facility, 2010)
